# Data from the supplement of paper PMC8728848.
# The other results are listed elsewhere or left out.
# B1: MpL2 (Macrolepiota procera) (protein)
# chain: MSTQVSSGQTYKITNVKAGTVIRLSGEDNKSIIGYPYHSGKNQQWTFNWTGKAWTLRSASSGSYLGIEGTPADGTRLVAVNDPFEWHIWRDEANENAFRIFVPFTNYNLDLSGYGDTTPGTPVQLWWTWEGLHQTWTIDRP
# Legend:
# Assay in all cases: glycan array binding signal (z-score within array); higher = stronger binding
# Details in all cases: glycan notation: IUPAC condensed, linker removed; mutation: D22R
# [1] = target: Gal(b1-3)GlcNAc(b1-6)GalNAc
# Outline: (§1)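 Glycan array binding is given as a within-array Z-score, which can be read as non-binding when negative. The arrays, 3228 of them, came from the Consortium for Functional Glycomics database and were retained only where the protein sequence was available. Z-scores were averaged across arrays of the same protein sequence at different concentrations or buffers and across linkers.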
# [2] = target: Gal(b1-3)GlcNAc(b1-6)[Gal(b1-3)]GalNAc
# Outline: as §1
# [3] = target: Gal(b1-3)GlcNAc6S
# Outline: as §1
# [4] = target: Gal(b1-3)[Fuc(a1-4)]GlcNAc
# Outline: as §1
# [5] = target: Gal(b1-3)[Fuc(a1-4)]GlcNAc(b1-2)Man
# Outline: as §1
# [6] = target: Gal(b1-3)[Fuc(a1-4)]GlcNAc(b1-2)Man(a1-3)[Gal(b1-3)[Fuc(a1-4)]GlcNAc(b1-2)Man(a1-6)]Man(b1-4)GlcNAc(b1-4)[Fuc(a1-6)]GlcNAc
# Outline: as §1
# [7] = target: Gal(b1-3)[Fuc(a1-4)]GlcNAc(b1-3)Gal(b1-3)[Fuc(a1-4)]GlcNAc
# Outline: as §1
# [8] = target: Gal(b1-3)[Fuc(a1-4)]GlcNAc(b1-3)Gal(b1-4)[Fuc(a1-3)]GlcNAc
# Outline: as §1
# [9] = target: Gal(b1-3)[Fuc(a1-4)]GlcNAc(b1-6)GalNAc
# Outline: as §1
# [10] = target: Gal(b1-3)[GlcNAc(b1-6)]GalNAc
# Outline: as §1
# [11] = target: Gal(b1-3)[Neu5Ac(a2-6)]GalNAc
# Outline: as §1
# [12] = target: Gal(b1-3)[Neu5Ac(a2-6)]GlcNAc(b1-4)Gal(b1-4)Glc
# Outline: as §1
# [13] = target: Gal(b1-3)[Neu5Ac(b2-6)]GalNAc
# Outline: as §1
# [14] = target: Gal(b1-4)Gal
# Outline: as §1
# [15] = target: Gal(b1-4)GalNAc(a1-3)[Fuc(a1-2)]Gal(b1-4)GlcNAc
# Outline: as §1
# [16] = target: Gal(b1-4)GalNAc(b1-3)[Fuc(a1-2)]Gal(b1-4)GlcNAc
# Outline: as §1
# [17] = target: Gal(b1-4)Glc
# Outline: as §1
# [18] = target: Gal(b1-4)Glc6S
# Outline: as §1
# [19] = target: Gal(b1-4)GlcNAc
# Outline: as §1
# [20] = target: Gal(b1-4)GlcNAc(a1-6)Gal(b1-4)GlcNAc
# Outline: as §1
# [21] = target: Gal(b1-4)GlcNAc(b1-2)Man
# Outline: as §1
# [22] = target: Gal(b1-4)GlcNAc(b1-2)Man(a1-3)Man(b1-4)GlcNAc(b1-4)GlcNAc
# Outline: as §1
# [23] = target: Gal(b1-4)GlcNAc(b1-2)Man(a1-3)[Gal(b1-4)GlcNAc(b1-2)Man(a1-6)]Man(b1-4)GlcNAc(b1-4)GlcNAc
# Outline: as §1
# [24] = target: Gal(b1-4)GlcNAc(b1-2)Man(a1-3)[Gal(b1-4)GlcNAc(b1-2)Man(a1-6)]Man(b1-4)GlcNAc(b1-4)[Fuc(a1-6)]GlcNAc
# Outline: as §1
# [25] = target: Gal(b1-4)GlcNAc(b1-2)Man(a1-3)[Gal(b1-4)GlcNAc(b1-2)Man(a1-6)][Gal(b1-4)GlcNAc(b1-4)]Man(b1-4)GlcNAc(b1-4)[Fuc(a1-6)]GlcNAc
# Outline: as §1
# [26] = target: Gal(b1-4)GlcNAc(b1-2)Man(a1-3)[Gal(b1-4)GlcNAc(b1-2)Man(a1-6)][GlcNAc(b1-4)]Man(b1-4)GlcNAc(b1-4)[Fuc(a1-6)]GlcNAc
# Outline: as §1
# [27] = target: Gal(b1-4)GlcNAc(b1-2)Man(a1-3)[GlcNAc(b1-2)Man(a1-6)]Man(b1-4)GlcNAc(b1-4)GlcNAc
# Outline: as §1
# [28] = target: Gal(b1-4)GlcNAc(b1-2)Man(a1-3)[GlcNAc(b1-4)][Gal(b1-4)GlcNAc(b1-2)Man(a1-6)]Man(b1-4)GlcNAc(b1-4)GlcNAc
# Outline: as §1
# [29] = target: Gal(b1-4)GlcNAc(b1-2)Man(a1-3)[Man(a1-6)]Man(b1-4)GlcNAc(b1-4)GlcNAc
# Outline: as §1
# [30] = target: Gal(b1-4)GlcNAc(b1-2)Man(a1-6)Man(b1-4)GlcNAc(b1-4)GlcNAc
# Outline: as §1
# [31] = target: Gal(b1-4)GlcNAc(b1-2)Man(a1-6)[GlcNAc(b1-2)Man(a1-3)]Man(b1-4)GlcNAc(b1-4)GlcNAc
# Outline: as §1
# [32] = target: Gal(b1-4)GlcNAc(b1-2)Man(a1-6)[Man(a1-3)]Man(b1-4)GlcNAc(b1-4)GlcNAc
# Outline: as §1
# [33] = target: Gal(b1-4)GlcNAc(b1-2)[Gal(b1-4)GlcNAc(b1-4)]Man(a1-3)[Gal(b1-4)GlcNAc(b1-2)Man(a1-6)]Man(b1-4)GlcNAc(b1-4)GlcNAc
# Outline: as §1
# [34] = target: Gal(b1-4)GlcNAc(b1-2)[Gal(b1-4)GlcNAc(b1-4)]Man(a1-3)[Gal(b1-4)GlcNAc(b1-2)[Gal(b1-4)GlcNAc(b1-6)]Man(a1-6)]Man(b1-4)GlcNAc(b1-4)GlcNAc
# Outline: as §1
# [35] = target: Gal(b1-4)GlcNAc(b1-2)[Gal(b1-4)GlcNAc(b1-4)]Man(a1-3)[GlcNAc(b1-4)][Gal(b1-4)GlcNAc(b1-2)Man(a1-6)]Man(b1-4)GlcNAc(b1-4)GlcNAc
# Outline: as §1
# [36] = target: Gal(b1-4)GlcNAc(b1-2)[Gal(b1-4)GlcNAc(b1-4)]Man(a1-3)[GlcNAc(b1-4)][Gal(b1-4)GlcNAc(b1-2)[Gal(b1-4)GlcNAc(b1-6)]Man(a1-6)]Man(b1-4)GlcNAc(b1-4)GlcNAc
# Outline: as §1
# [37] = target: Gal(b1-4)GlcNAc(b1-2)[Gal(b1-4)GlcNAc(b1-6)]Man(a1-6)[Gal(b1-4)GlcNAc(b1-2)Man(a1-3)]Man(b1-4)GlcNAc(b1-4)GlcNAc
# Outline: as §1
# [38] = target: Gal(b1-4)GlcNAc(b1-2)[Gal(b1-4)GlcNAc(b1-6)]Man(a1-6)[Gal(b1-4)GlcNAc(b1-2)Man(a1-3)]Man(b1-4)GlcNAc(b1-4)[Fuc(a1-6)]GlcNAc
# Outline: as §1
# [39] = target: Gal(b1-4)GlcNAc(b1-2)[Gal(b1-4)GlcNAc(b1-6)]Man(a1-6)[GlcNAc(b1-4)][Gal(b1-4)GlcNAc(b1-2)Man(a1-3)]Man(b1-4)GlcNAc(b1-4)GlcNAc
# Outline: as §1
# [40] = target: Gal(b1-4)GlcNAc(b1-2)[Gal(b1-4)GlcNAc(b1-6)]Man(a1-6)[GlcNAc(b1-4)][Gal(b1-4)GlcNAc(b1-2)[Gal(b1-4)GlcNAc(b1-4)]Man(a1-3)]Man(b1-4)GlcNAc(b1-4)[Fuc(a1-6)]GlcNAc
# Outline: as §1
# [41] = target: Gal(b1-4)GlcNAc(b1-3)Gal(b1-3)GalNAc
# Outline: as §1
# [42] = target: Gal(b1-4)GlcNAc(b1-3)Gal(b1-3)GlcNAc
# Outline: as §1
# [43] = target: Gal(b1-4)GlcNAc(b1-3)Gal(b1-4)Glc
# Outline: as §1
# [44] = target: Gal(b1-4)GlcNAc(b1-3)Gal(b1-4)GlcNAc
# Outline: as §1
# [45] = target: Gal(b1-4)GlcNAc(b1-3)Gal(b1-4)GlcNAc(b1-2)Man(a1-3)[Gal(b1-4)GlcNAc(b1-3)Gal(b1-4)GlcNAc(b1-2)Man(a1-6)]Man(b1-4)GlcNAc(b1-4)GlcNAc
# Outline: as §1
binder,measurement,setting,value
B1,glycan array binding signal (z-score),[1],0.107
same,glycan array binding signal (z-score),[2],1.13
same,glycan array binding signal (z-score),[3],-0.366
same,glycan array binding signal (z-score),[4],-0.377
same,glycan array binding signal (z-score),[5],0.169
same,glycan array binding signal (z-score),[6],0.334
same,glycan array binding signal (z-score),[7],-0.2
same,glycan array binding signal (z-score),[8],-0.392
same,glycan array binding signal (z-score),[9],1.05
same,glycan array binding signal (z-score),[10],-0.149
same,glycan array binding signal (z-score),[11],-0.787
same,glycan array binding signal (z-score),[12],-0.326
same,glycan array binding signal (z-score),[13],-0.168
same,glycan array binding signal (z-score),[14],0.284
same,glycan array binding signal (z-score),[15],0.023
same,glycan array binding signal (z-score),[16],-0.145
same,glycan array binding signal (z-score),[17],-0.098
same,glycan array binding signal (z-score),[18],0.109
same,glycan array binding signal (z-score),[19],-0.208
same,glycan array binding signal (z-score),[20],4.13
same,glycan array binding signal (z-score),[21],0.161
same,glycan array binding signal (z-score),[22],-0.218
same,glycan array binding signal (z-score),[23],-0.47
same,glycan array binding signal (z-score),[24],0.366
same,glycan array binding signal (z-score),[25],-1.56
same,glycan array binding signal (z-score),[26],-0.365
same,glycan array binding signal (z-score),[27],-0.978
same,glycan array binding signal (z-score),[28],-0.408
same,glycan array binding signal (z-score),[29],-0.207
same,glycan array binding signal (z-score),[30],-0.109
same,glycan array binding signal (z-score),[31],-0.42
same,glycan array binding signal (z-score),[32],0.094
same,glycan array binding signal (z-score),[33],-0.492
same,glycan array binding signal (z-score),[34],-0.046
same,glycan array binding signal (z-score),[35],-0.047
same,glycan array binding signal (z-score),[36],-0.687
same,glycan array binding signal (z-score),[37],-0.672
same,glycan array binding signal (z-score),[38],0.89
same,glycan array binding signal (z-score),[39],-0.082
same,glycan array binding signal (z-score),[40],0.014
same,glycan array binding signal (z-score),[41],-0.633
same,glycan array binding signal (z-score),[42],-0.285
same,glycan array binding signal (z-score),[43],-0.12
same,glycan array binding signal (z-score),[44],-0.231
same,glycan array binding signal (z-score),[45],2.6
